# Data: the supplement of paper PMC12217912
# The other results are listed elsewhere or left out. Sequences were assembled here from the parent chain. Values near 0.05 are background.
# B1: TEV protease; numbered along this chain (parent)
# chain: MGESLFKGPRDYNPISSSICHLTNESDGHTTSLYGIGFGPFIITNKHLFRRNNGTLVVQSLHGVFKVKDTTTLQQHLVDGRDMIIIRMPKDFPPFPQKLKFREPQREERICLVTTNFQTKSMSSMVSDTSCTFPSGDGIFWKHWIQTKDGQCGSPLVSTRDGFIVGIHSASNFTNTNNYFTSVPKNFMELLTNQEAQQWVSGWRLNADSVLWGGHKVFMVKPEEPFQPVKEATQL
# Variants of: B1
# Assay: raw area under fraction-flipped curve 0-4 h after induction (AUC4h, not background-subtracted), DNA-recorder readout of cleavage of the substrate (dimensionless); higher = more cleavage of the substrate by the protease variant
# Conditions: temperature: 34 °C; time window: 0-4 h after rhamnose induction
# Method: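 In vivo DNA recorder in E. coli TOP10(DE3) ΔrhaA at 34 °C. Each TEVp single-site mutant (parent TEVp 0) is paired with a single-site variant of the 7-mer TEVs (canonical ENLYFQ|S). The substrate sits between flexible linkers in a Bxb1-sfGFP-TEVs-SsrA fusion, so cleavage stabilises Bxb1 and speeds flipping of a recombination array, read by NGS. The value is the raw area under the fraction-flipped curve over 0-4 h after rhamnose induction (AUC4h), with ≥20 reads per time point. It is not background-subtracted; inactive controls average about 0.047.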
# 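Further: Bxb1 expression induced with 0.2% (w/v) L-rhamnose at OD600 near 0.5, cultures sampled hourly, flipped fraction per protease–substrate barcode pair counted by paired-end Illumina sequencing.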
Variant,area with substrate EALYFQS,area with substrate ECLYFQS,area with substrate EELYFQS,area with substrate EILYFQS,area with substrate EMLYFQS,area with substrate EQLYFQS,area with substrate ERLYFQS,area with substrate ESLYFQS,area with substrate ETLYFQS,area with substrate EFLYFQS,area with substrate EGLYFQS,area with substrate EKLYFQS,area with substrate EVLYFQS,area with substrate ELLYFQS,area with substrate EWLYFQS,area with substrate EDLYFQS,area with substrate EHLYFQS,area with substrate EPLYFQS,area with substrate EYLYFQS
S209D,0.142,0.119,0.123,0.115,0.128,0.144,0.117,0.138,0.097,,,,,,,,,,
L205H,0.0803,,,0.0757,0.0717,0.0704,0.0657,,,0.0673,0.0375,0.0758,0.0735,,,,,,
M219T,0.0928,0.125,0.116,0.0709,0.152,,0.108,,,0.0749,,0.0704,0.113,0.107,0.0883,,,,
W199F,0.103,0.0708,0.116,,,0.0751,,0.0761,,,,,0.0875,0.0959,0.0737,,,,
W199P,0.0859,,0.0545,0.0765,,,0.0552,,0.0854,,,,0.0648,0.0658,0.0613,0.0776,0.0724,,
Q197V,0.121,,0.12,0.0747,,0.136,0.113,0.102,0.148,,0.0897,,0.12,,0.0413,0.15,0.104,0.0853,
G213R,0.0574,0.0561,0.0615,0.0565,,0.0681,0.0601,0.0639,0.0861,0.0681,,0.0686,0.0727,0.0594,0.0652,,0.0635,0.058,0.047
W212G,0.0716,0.0718,0.0795,,,0.064,0.0751,0.073,,,0.0633,0.0556,0.0389,0.0492,,,0.0764,0.0775,
A196D,0.109,0.0935,,0.0879,0.105,,,0.122,,0.0708,0.0896,0.0983,0.11,,0.11,,0.0991,0.119,
A196F,0.124,0.134,0.0801,,0.116,0.102,0.102,,0.103,0.123,0.106,0.11,0.0931,,0.0901,,0.126,,0.112
A196W,0.0873,0.0972,,,0.0864,,0.093,,,,0.0808,0.0773,0.0804,,,0.105,0.103,,
Q198N,0.109,0.101,0.113,0.103,0.0963,,0.134,0.0983,,,,,,0.0904,,,,0.105,
Q198A,0.108,0.0914,0.0766,,0.0801,0.0923,,,,0.104,,0.133,0.0926,,0.0818,,0.103,,0.0804
Q198T,0.114,0.0981,0.147,0.0877,,0.146,0.101,0.101,0.132,,,0.0866,0.0495,0.0828,0.097,,0.116,0.131,
Q198L,0.127,,0.13,0.0838,0.104,0.138,0.0957,0.0804,0.0887,0.0938,0.0867,0.1,0.102,,0.0829,,,0.103,0.0843
G214D,0.0722,,,,0.0955,,0.0814,0.0778,0.0471,,0.0617,0.0902,0.0706,0.0729,,0.0897,,,
L211M,0.0596,0.0819,0.0895,0.0904,0.0955,0.0766,,0.12,,,,0.121,0.107,0.0954,0.0806,,0.126,0.139,0.123
R204G,0.0864,0.116,0.116,0.0759,0.091,0.0974,,0.087,0.11,,0.0854,0.0647,0.0913,0.0966,0.0665,,0.125,0.0812,0.0986
R204M,0.139,0.112,0.13,0.0909,0.13,0.148,0.13,0.0992,,0.104,0.123,0.109,0.0951,0.0961,,,0.124,0.105,0.123
R204V,0.134,0.119,0.144,0.102,0.101,0.115,0.101,0.143,,0.121,0.113,0.0862,0.128,0.126,,,0.14,0.105,0.142
F218N,0.0967,,,0.0781,0.0993,,0.0581,,,,,0.0309,0.0713,,,0.134,,0.114,
G202R,0.0698,0.0721,0.0923,,0.0558,,0.0722,,,,,0.0703,0.0645,,,,,0.0558,0.0671
A207T,0.108,,,0.0937,0.13,0.0472,0.0918,0.111,0.132,,0.13,0.138,0.0998,0.0876,0.0968,0.153,0.102,0.129,0.115
A207K,0.151,0.0899,0.118,,0.124,0.102,,,,,,,,,,,,0.129,0.137
S201G,0.0772,0.062,0.0711,0.0604,,0.0665,,0.07,,0.0666,0.0596,0.0221,,0.0617,0.0614,,,,
E195N,0.113,0.112,0.0959,0.0937,,,0.0895,0.1,0.129,,0.135,0.0812,0.0909,0.0999,0.098,,0.0424,,0.0878
E195R,0.105,,0.113,,0.153,0.081,,0.0984,0.108,0.0947,0.0991,,,,0.0826,,0.0886,0.134,0.0825
V210N,0.0825,0.0891,0.0962,0.0373,0.0743,0.0831,0.0573,0.0927,,0.0782,0.0682,0.0752,0.0935,0.0619,0.0765,,0.102,0.0755,0.0865
W203V,0.072,0.0813,0.064,0.0627,0.0638,0.0746,0.049,0.0779,,,0.0595,0.0751,0.0771,,,,0.0674,,
